Experimental data taken from patent US20080267980A1 (MUSC FOUNDATION FOR RESEARCH DEVELOPMENT, published 2008).

Molecular target: T1, Human C3dg-biotin (human, UniProt P01024 fragment, biotin (site not stated) in the SPR experiments)
T1 construct: domain: C3dg; In the ELISA it is purified C3dg coated on wells; also called C3dg ligand; CR2 ligand C3dg
Assay: ELISA, wells coated with purified C3dg, anti-human Fc antibodies
Experimental: In ELISA experiments, CR2-Fc was added to wells coated with purified C3dg. Binding was detected by means of anti-human Fc antibodies and enzyme-conjugated secondary antibodies. CR2-Fc bound to C3d.

T1 sequence (P01024 955-1303 limits assumed): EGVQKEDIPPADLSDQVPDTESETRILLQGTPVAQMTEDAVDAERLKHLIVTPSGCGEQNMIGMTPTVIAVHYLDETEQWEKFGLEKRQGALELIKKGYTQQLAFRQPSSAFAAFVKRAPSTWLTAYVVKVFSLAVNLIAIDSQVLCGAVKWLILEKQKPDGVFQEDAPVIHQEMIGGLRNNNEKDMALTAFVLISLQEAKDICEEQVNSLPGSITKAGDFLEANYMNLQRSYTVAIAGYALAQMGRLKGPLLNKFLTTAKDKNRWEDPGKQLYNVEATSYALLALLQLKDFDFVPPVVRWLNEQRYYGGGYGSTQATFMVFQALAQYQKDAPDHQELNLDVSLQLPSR

B1: CR2-human IgG1 Fc (Fc fusion)
chain: ISCGSPPPILNGRISYYSTPIAVGTVIRYSCSGTFRLIGEKSLLCITKDKVDGTWDKPAPKCEYFNKYSSCPEPIVPGGYKIRGSTPYRHGDSVTFACKTNFSMNGNKSVWCQANNMWGPTRLPTCVSVFPLECPALPMIHNGHHTSENVGSIAPGLSVTYSCESGYLLVGEKIINCLSSGKWSAVPPTCEEARCKSLGRFPNGKVKEPPILRVGVTANFFCDEGYRLQGPPSSRCVIAGQGVAWTKMPVCEEIFCPLRPQSR[skipping human IgG1 Fc with changes]
notes: First 4 SCRs of CR2 linked to the human IgG1 Fc region; also called CR2-Fc; Human CR2-IgG1 Fc
- binding result: binds
